Reference: the RNAGym collection of RNA variant scans (doi:10.1093/nar/gkz1192)
Read counts are not given, so values of variants with three or more changes are uncertain.

B1: CPEB3 Ribozyme (parent)
chain: UAACAGGGGGCCACAGCAGAAGCGUUCACGUCGCAGCCCCUGUCAGAUUCUGGUGAAUCUGCGAAUUCUGCUGUAUAUCUC

Variants of: B1
Experiment: self-cleavage, relative activity (ratio to wild type); higher = more cleavage; in vitro, sequencing
How it was run: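 For each CPEB3 ribozyme variant, relative activity is its cleaved/total read fraction divided by the unmutated ribozyme's. Barcoded error-prone PCR libraries were transcribed by T7 RNA polymerase (5 hours, 37°C) and held in DNase I for 15 min before an EDTA stop, with cleavage occurring throughout. Template-switching reverse transcription and Illumina sequencing were used to read the RNAs. A 5-read minimum applied, and results are the mean of three batches.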

| Variant | self-cleavage |
| --- | --- |
| A35G A56G U58G | 1.04 |
| A35G A56G U60A U74C U78C | 1.19 |
| A35G A56G U69G U74C | 1.25 |
| A35G A56G U72C | 1.22 |
| A35G A56G U80A | 1.33 |
| A35G A56G U80C | 1.37 |
| A35G A56U A57G A64G | 1.07 |
| A35G A56U A65G U69C U72A | 0.79 |
| A35G A56U C59A | 0.54 |
| A35G A56U U60A U76A | 0.78 |
| A35G A56U U67C C71U | 0.66 |
| A35G A56U U69A | 0.96 |
| A35G A56U U69C | 0.7 |
| A35G A57C U58C U60C C62U | 0.53 |
| A35G A57G A64U | 0.99 |
| A35G A57U U58C U78C | 0.71 |
| A35G A57U U60A | 0.5 |
| A35G A57U U78C | 1.22 |
| A35G A64C U74G | 1.1 |
| A35G A64G A77G | 1.27 |
| A35G A64G U69A U80C | 0.58 |

| Variant | self-cleavage |
| --- | --- |
| A35G A64G U72A | 1.34 |
| A35G A64G U74C | 1.29 |
| A35G A64U U69A | 0.72 |
| A35G A64U U72C | 0.93 |
| A35G A64U U78A | 1.33 |
| A35G A65G A77G | 1.04 |
| A35G A65G U69A | 0.7 |
| A35G A65G U72C | 1.06 |
| A35G A65G U74C U80C | 1.27 |
| A35G A65G U76G | 1.2 |
| A35G A65G U78A | 1.27 |
| A35G A65G U80A | 1.14 |
| A35G A65U U76A | 0.89 |
| A35G C37A A64G U74C | 1.12 |
| A35G C37A U54G A75G | 0.6 |
| A35G C37G U43A U51C U74C U80C | 0.87 |
| A35G C37G U43C C79U | 0.63 |
| A35G C37U U43C U48A | 0.31 |
| A35G C37U U80C | 1.22 |
| A35G C38A A56U C71A U72A | 0.17 |
| A35G C38A C71A G73A | 0.65 |

| Variant | self-cleavage |
| --- | --- |
| A35G C38A G42A A45G | 0.24 |
| A35G C38A U58A | 0.27 |
| A35G C38A U67C | 0.19 |
| A35G C38U A45G | 1.24 |
| A35G C38U U41A C50G C79A | 0.26 |
| A35G C39A A47G A57G A64G C79U | 0.12 |
| A35G C39A A47G U54A | 0.63 |
| A35G C39A C71A | 0.13 |
| A35G C39A U41C A47U | 0.54 |
| A35G C39U U54C U69A A75G | 1.13 |
| A35G C39U U54C U80A | 1.26 |
| A35G C40A A47G A64U | 0.14 |
| A35G C40A A56G | 0.47 |
| A35G C40A A75U | 0.6 |
| A35G C40A A77G | 0.3 |
| A35G C40A G42A A64G | 0.1 |
| A35G C40A U54C A65U U76C | 0.11 |
| A35G C40A U67A U69A A77U | 0.08 |
| A35G C40A U69C | 0.19 |
| A35G C40U U49C A56G A65G | 0.81 |
| A35G C40U U51C U60C | 0.63 |

| Variant | self-cleavage |
| --- | --- |
| A35G C40U U54C U60C | 0.4 |
| A35G C40U U60A | 0.75 |
| A35G C44U A47G U48C A57U U67C U74C | 0.03 |
| A35G C44U U72C C79A | 1.06 |
| A35G C62U U69G | 0.48 |
| A35G C62U U80A | 0.17 |
| A35G C68A C71A U78C | 0.93 |
| A35G G36A C40U U78C | 0.31 |
| A35G G36A U41C | 1.34 |
| A35G G36A U58C | 0.32 |
| A35G G36C U43G A57G | 0.05 |
| A35G G36C U78C | 0.11 |
| A35G G36U U41C | 1.04 |
| A35G G42A A45U U60C | 0.19 |
| A35G G42U U43A | 0.32 |
| A35G G46A A64G | 1.13 |
| A35G G46A C62U | 0.18 |
| A35G G46A U78A U80A | 1.27 |
| A35G G52A U60C A64U U67A | 0.71 |
| A35G G52A U67C U69A | 0.69 |
| A35G G52A U72C U78C | 1.44 |
